Drawing on article PMC10668032, this text covers binding signal for 219 sequences.

The other results are listed elsewhere or left out. At the low end of the ranking the order means little.

In the assay the target is SIX1 homeodomain (reference allele) (UniProt Q15475). The experiment in a line: universal protein binding microarray. To be noted: Universal all-10-mer PBM (8x60K, AMADID 030236), 300 nM GST-tagged protein, Alexa Fluor 488 anti-GST; buffer, salt, pH and temperature not stated; high values mean tight binding; most listed sequences are background and not binding sites; double strand, one strand shown.
Consider ACTTGGCG, for which the binding signal is -0.242 E-score.

In the case of ACACGGAC, the binding signal was determined as 0.0252 E-score. The value for TCCCCCCA was -0.0273 E-score; that for ATGCGACC was 0.135 E-score; that for GAGTCGAC was -0.00911 E-score. In the case of CCGATCCG, the binding signal worked out at 0.428 E-score. With AAGGCCGT the figure was -0.0984 E-score. With TAAGGCTA the figure was -0.0214 E-score. The value for AACAACCA was -0.243 E-score; that for ATCGTCTC was 0.304 E-score. In the case of AGAGAAAT, the binding signal is -0.125 E-score. With AACAGCAG the figure was -0.0969 E-score; with CACCCACA, 0.0515 E-score; with AGGGGAAT, 0.0637 E-score. The value for ACTGCTAT was 0.177 E-score; that for ACTGCCGC was -0.182 E-score.

In the case of CGACTGCG, the binding signal was -0.0688 E-score. On to ATCGAGCG, for which the binding signal came out at 0.156 E-score.

Turning to GGTACACC, the binding signal is 0.298 E-score. AATGGTGG: the binding signal is -0.0872 E-score. With CGAGGGTC the figure was -0.276 E-score; with ACGTGACA, -0.134 E-score; with CTCATAAA, -0.0141 E-score. With CGAAGCGC the figure was -0.0455 E-score. With ATCTTCAG the figure was 0.153 E-score; with GAGACCTA, 0.116 E-score; with AGCTCTAG, -0.0365 E-score. Regarding ACCCGAAC, the binding signal was 0.0616 E-score. The value for AGGGCGAA was -0.272 E-score; that for CCTCTCGC was -0.0679 E-score; that for CAAATGAG was -0.0774 E-score. With ATCTGGAC the figure was 0.208 E-score. The value for ATATGTCA was 0.166 E-score; that for AGGCCTGA was 0.0224 E-score; that for AATTAGTA was -0.0701 E-score. AACAAGTA: the binding signal is -0.207 E-score. Consider ATTGCAGC, for which the binding signal is -0.00129 E-score. As for CTGCACCC, the binding signal came to 2.5e-05 E-score. The value for ACTAAACG was 0.0109 E-score; that for GCGTCCAC was -0.114 E-score. With GTTTGCTA the figure was -0.196 E-score; with TCCCCTAA, 0.263 E-score; with CCGGCACA, -0.0294 E-score. The value for ACCCCGCC was 0.188 E-score; that for ACGAACAC was -0.0303 E-score.

On to TAAAAGCA, for which the binding signal is -0.152 E-score. The value for ACTCAAAA was -0.0927 E-score; that for GCTCGCTA was 0.055 E-score. The value for ACACTTTG was 0.0262 E-score; that for ATATGGCC was 0.197 E-score; that for CGGTAGGC was -0.156 E-score. For AAGCTCTG, the binding signal was -0.228 E-score. Take AGTGCTAT: the binding signal amounted to 0.0179 E-score. With CTCACGTC the figure was -0.0519 E-score; with GCTTACAC, 0.0239 E-score. As for CACCTGGC, the binding signal was -0.0743 E-score.

As for CCTTGGTC, the binding signal was -0.0581 E-score. In the case of GACACATC, the binding signal was -0.07 E-score.

In the case of CACCTCCG, the binding signal was 0.268 E-score. Turning to CAACCTAG, the binding signal came out at 0.114 E-score.

With TCAGCGGA, the binding signal was found to be 0.0989 E-score. For AAGCGATA, the binding signal was 0.376 E-score. Take CTGAAAAC: the binding signal is -0.0358 E-score. In the case of AAATGGGA, the binding signal is -0.0533 E-score. Take AAAGACTC: the binding signal was -0.287 E-score.

For ACTGAGAT, the binding signal came out at 0.124 E-score.

Turning to ATTCCATA, the binding signal stood at 0.037 E-score.

As for GCGCGGAC, the binding signal is -0.18 E-score.

With CCCATAAA, the binding signal is -0.14 E-score. The value for ACAGCAAC was -0.213 E-score; that for CATTAAAA was -0.0887 E-score; that for CGGCGCAC was -0.148 E-score. Regarding GTAATCAA, the binding signal is -0.126 E-score. The value for AGCTTGAC was -0.243 E-score. With GACTTAAA the figure was -0.235 E-score; with CTATCAAC, 0.29 E-score. As for CAAATGGG, the binding signal was -0.0851 E-score.

As for ACCAGCAG, the binding signal was -0.116 E-score. For the sequence CAGGGTGG, the binding signal was 0.0899 E-score. The value for AAATCCAC was -0.101 E-score; that for AAGACCTA was -0.173 E-score. The value for CGGTGTAA was 0.257 E-score; that for AACACCCA was 0.13 E-score. The value for CTCATAAG was 0.126 E-score; that for GCGAGGAA was -0.146 E-score. For the sequence TATCCATA, the binding signal is 0.391 E-score. With AATGCCGA the figure was -0.0344 E-score; with AGTGCGCG, -0.254 E-score. With TAGGGCGA the figure was 0.0366 E-score. For the sequence GAAAGTTC, the binding signal was -0.368 E-score.

Take ACCAATCT: the binding signal turned out to be 0.103 E-score. Take TTGCTAAA: the binding signal is -0.233 E-score. The value for CACTGGCC was -0.0766 E-score. Regarding CAATGGGA, the binding signal is -0.0446 E-score. With CGGGATCA the figure was 0.417 E-score; with GTAACATA, 0.0437 E-score; with ATGCCGAA, 0.00536 E-score. As to CACTAGGG, the binding signal stood at 0.0663 E-score. The value for AACTTGTA was -0.206 E-score; that for GGCAATGA was -0.0784 E-score. The value for AATATTCC was 0.251 E-score; that for AAATCGCG was -0.139 E-score; that for ACCTCACT was 0.0117 E-score. GCCGGGAC: the binding signal was -0.129 E-score. ACTACTCT: the binding signal was -0.0322 E-score. Regarding AAGACTAT, the binding signal was -0.0452 E-score. As for ACTGGTGG, the binding signal was -0.0712 E-score. With CCGCACCG the figure was -0.0552 E-score.

In the case of CCACTCGC, the binding signal came out at 0.00504 E-score. Turning to ATCGCGCC, the binding signal came to 0.158 E-score.

As to AGTATTTA, the binding signal was -0.033 E-score. With ACAACTAC, the binding signal was -0.211 E-score. The value for CTATGCAG was 0.0494 E-score; that for CTGTCGGA was 0.0389 E-score; that for GCTCTAAC was -0.0119 E-score. Take CCGGCAAA: the binding signal was -0.141 E-score. In the case of CCCTAAGA, the binding signal came to 0.0664 E-score.

With CGTTCTTC, the binding signal is -0.0968 E-score. The value for TACTCCGA was 0.177 E-score; that for ACGGGGTG was 0.146 E-score. AGGGGAGG: the binding signal stood at 0.126 E-score.

Turning to ACGTAAGG, the binding signal is -0.138 E-score. The value for ACAGGGAA was -0.158 E-score; that for GACCGGCA was -0.152 E-score; that for ATAATAAC was -0.00396 E-score. With GAGACCCA the figure was 0.143 E-score. The value for GTTCCACA was 0.0269 E-score; that for GCTAGTGA was -0.0241 E-score. With GTTTATAA, the binding signal was -0.0702 E-score. The value for AGCCGCGA was 0.11 E-score; that for CCCAAGAG was -0.0251 E-score.

For ACAAAACC, the binding signal was -0.0518 E-score. The value for TAGCCTCA was -0.173 E-score. As to TAAGTTAA, the binding signal is -0.0399 E-score. The value for CCTCATTA was -0.056 E-score; that for ATGAAGGA was 0.0258 E-score; that for ACACCGTC was 0.262 E-score. With AGAGGCAG the figure was -0.18 E-score; with GACTTGCA, -0.094 E-score.

With CCGATGCA, the binding signal was 0.0271 E-score. As for GCAGACAA, the binding signal was -0.0799 E-score. The value for CACTTTCG was -0.0427 E-score. With AGTGACAG the figure was -0.0951 E-score; with AGCTACAT, 0.0767 E-score; with AGTGCAAT, -0.129 E-score. As for ACCGATGC, the binding signal was 0.0323 E-score. As for AACCCTAT, the binding signal was 0.185 E-score. With AACATTGT the figure was -0.0921 E-score; with CTCAAAGC, -0.117 E-score; with TCTCACAA, 0.0917 E-score. With TCTCGGCA the figure was -0.105 E-score; with AATTCAGA, -0.119 E-score.

Turning to GACGAAAA, the binding signal is -0.302 E-score.

In the case of GGCTGACA, the binding signal worked out at 0.0873 E-score.

For the sequence GGTCCCCA, the binding signal was -0.211 E-score.

For the sequence ATAGAAAC, the binding signal is -0.0559 E-score.

On to GGGTAGAC, for which the binding signal worked out at 0.0718 E-score. For GAATATTC, the binding signal is 0.106 E-score. The value for GACGGCTC was -0.0532 E-score; that for AAAAGAAG was -0.286 E-score; that for AGAATCTG was 0.12 E-score. For the sequence ACACCAAG, the binding signal was found to be 0.236 E-score. In the case of ATTCCTGA, the binding signal was 0.0326 E-score.

With CTACATCA, the binding signal was -0.116 E-score. In the case of CGAGCTCG, the binding signal stood at 0.114 E-score. CTCCCGTC: the binding signal was 0.0843 E-score.

For the sequence GTCAGAAA, the binding signal is -0.144 E-score. For the sequence ACGCGCGG, the binding signal is -0.105 E-score. As for CTCCTGAC, the binding signal turned out to be 0.0254 E-score. With ACCAGGAA the figure was -0.144 E-score; with AATGTGAA, -0.141 E-score; with AGAAGTTA, -0.205 E-score. Regarding GATGATGC, the binding signal turned out to be 0.0873 E-score. For the sequence CCCAAAAG, the binding signal was -0.185 E-score. With ACAACCCT the figure was -0.0766 E-score. In the case of ACCCGGCG, the binding signal came to 0.107 E-score. The value for CGCCCAGC was -0.0229 E-score; that for CATTTAGC was -0.115 E-score; that for TGGAGACA was 0.076 E-score. Take CAAACTCC: the binding signal is -0.193 E-score. On to GCTGCACA, for which the binding signal is -0.151 E-score. On to AGGTTCGA, for which the binding signal is -0.0179 E-score. With ATTAACCA the figure was -0.0164 E-score. Turning to GATTCCAA, the binding signal was 0.0394 E-score. The value for AAACCGCT was -0.0955 E-score; that for ATACGTAT was 0.421 E-score; that for CCTAACAA was -0.137 E-score. On to CAGATTCA, for which the binding signal was 0.0897 E-score. With AAGAGGGC the figure was -0.0566 E-score; with ATCTCCAT, 0.238 E-score. The value for CGTGCCTC was -0.121 E-score; that for TAAAATAA was -0.0717 E-score. With GCGGACAC the figure was 0.15 E-score; with GTTGCCTA, -0.15 E-score; with AGTCTTCC, -0.254 E-score. As for CTAGAGGC, the binding signal was -0.123 E-score. Consider GATATAGC, for which the binding signal worked out at 0.368 E-score. Regarding ACGGCCCC, the binding signal was -0.344 E-score. The value for ATACGGGG was 0.335 E-score; that for CGTACACC was 0.205 E-score. With CCCAGATA the figure was 0.302 E-score; with GGCATGCC, 0.0604 E-score; with ATAACTAA, 0.0576 E-score. As for GGCCAGAA, the binding signal was -0.125 E-score. Turning to AGGACCAG, the binding signal is -0.188 E-score. On to AATATGGC, for which the binding signal was found to be 0.097 E-score. The value for GCAGTGCC was -0.155 E-score; that for CATGGATC was 0.307 E-score. With GCGATCAA the figure was 0.18 E-score; with GCACGTTA, -0.0721 E-score; with ACCTTCAT, -0.0214 E-score. Take AATGCGGG: the binding signal stood at 0.0957 E-score. With CGACCAGC, the binding signal is -0.165 E-score. The value for CTGTCACC was 0.0245 E-score. AGGGTGCC: the binding signal was -0.0802 E-score. TCTGCTAA: the binding signal was -0.0693 E-score.

As for CGCAGCAA, the binding signal is -0.169 E-score.

On to ACCTACCT, for which the binding signal is -0.195 E-score. Turning to ACGGGCAA, the binding signal is 0.0506 E-score.
